The densities may have been worked out from excess volumes.
Assay: xn = mol fraction of the nth substance listed
Details: 298.15 K, 101.3 kPa

| SMILES | mass density (x1 = 1) [kg/m3] | mass density (x2 = 0) [kg/m3] | mass density (x2 = 0.1591) [kg/m3] | mass density (x2 = 0.5381) [kg/m3] | mass density (x2 = 0.6546) [kg/m3] | mass density (x2 = 0.7624) [kg/m3] | mass density (x2 = 0.8495) [kg/m3] | mass density (x2 = 0.9087) [kg/m3] | mass density (x2 = 0.951) [kg/m3] | mass density (x2 = 0.9688) [kg/m3] |
| --- | --- | --- | --- | --- | --- | --- | --- | --- | --- | --- |
| CO + CCCC[n+]1ccccc1.F[B-](F)(F)F | 786.5 | – | – | – | – | – | – | – | – | – |
| CCCC[n+]1ccccc1.F[B-](F)(F)F + CO | – | 1220 | 1205 | 1139.9 | 1102.9 | 1052.1 | 992.1 | 934.2 | 878 | 847 |
